Molecular target: T1, biotinylated AviTag-His6-NCOA4^383−522-MBP (human, UniProt Q13772 383-522, biotin on the AviTag (BirA co-expressed))
T1 construct: N-terminal AviTag followed by His6; C-terminal MBP; source: E. coli BL21 Tuner DE3, purified (Ni-NTA, MBPTrap, SEC); not shown: AviTag, N-terminal, kept; His6, N-terminal, kept; MBP, C-terminal, kept
T1 sequence (looked up): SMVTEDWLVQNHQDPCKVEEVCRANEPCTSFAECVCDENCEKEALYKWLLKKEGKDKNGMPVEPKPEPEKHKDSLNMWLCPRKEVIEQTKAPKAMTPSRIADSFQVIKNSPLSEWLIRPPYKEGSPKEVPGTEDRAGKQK
Test: BLI; biotinylated NCOA4^383−522 constructs loaded to 0.6 nm on streptavidin biosensors; GATE16 construct or GST in solution (up to 5 μM); 20 mM Tris, 150 mM NaCl, 0.05% Tween-20, 1% BSA, 1 mM DTT, pH 7.5; 30°C
Conditions: both partners purified

B1: LDS* (GST-GATE16)2 (natural protein)
chain: not shown
notes: GATE16, LC3/GABARAP-family protein, Y49A and L50A in the LIR docking site; also called LDS* mutant of GST-GATE16; Y49 and L50 mutated to alanines; source: made by Q5 site-directed mutagenesis of GST-GATE16
  binding result: binds

Source: publication PMC12872393 (Life Science Alliance, 2026)
